Among all 130,000 compounds or so, about 1,900 (1.5%) were called active. Inconclusive means that the source gave no clear call. Such entries were picked first, then a sample of the others. Calls follow the shape of the dose curve; as a rule, active = well fitted cell-killing curve with a large enough effect; inconclusive = small, poorly fitted or top-dose-only effect; inactive = no such curve, though single readings can be large or run the other way. A potency beside an inconclusive call is a rough fit, not a confirmed value.
Assay: qHTS Screen for Compounds that Selectively Target Cancer Cells with p53 Mutations: Cytotoxicity of p53ts Cells at the Nonpermissive Temperature; also: nearly all actives have a fitted effect of over 55% in size
Conditions: H1299-p53A138V viability at 39C, ATP luminescence, 24 h; activity change, negative = cell killing: at 46.1 µM (top of the series)
For `COc1ccc(C(c2nnnn2C2CCCC2)N2CCC(C)CC2)c(OC)c1` (configuration not stated), the “activity change, negative = cell killing” value was inactive: 2.2%. In the case of `Cc1cccc(-n2ncc3c(N4CCCCCC4)ncnc32)c1`, the Potency is reported as active: 3.98 µM. With `Cc1cc(=O)cc2oc3cc(N)c(-c4c(C)cc(O)cc4O)c(C)c3nc1-2` the “activity change, negative = cell killing” value was inactive: -17%. For `O=c1[nH]cnc2ccccc12`, the “activity change, negative = cell killing” value was inactive: 2.12%. In the case of `O=S(=O)(c1ccccc1)c1nc(-c2ccc(F)cc2)oc1N1CCCCCC1`, the “activity change, negative = cell killing” value is reported as inactive: 11.5%. With `O=C(Cn1ncc2c(Cl)cccc21)NCc1cccc(Br)c1` the Potency was inconclusive: 25.1 µM [cytotoxic, single point]. With `Cc1cccc(NC(=O)Cn2c(C(F)(F)F)nc3ccccc32)c1C` the Potency was inconclusive: 0.158 µM [cytotoxic, full curve, poor fit]. With `CCOC(=O)c1c(S(=O)(=O)N2CCC(C(=O)N3CCN(c4cc(C)ccc4C)CC3)CC2)c(C)n(C)c1C` the Potency was inconclusive: 31.6 µM [cytotoxic, single point]. For `Cc1ccc(-c2cc(C(=O)N3CCN(c4ccccc4)CC3)c3ccccc3n2)cc1C`, the Potency was active: 10 µM. For `COc1ccc(CCN2CCC(CNC(=O)c3cnn(-c4ccccc4)c3C3CCN(C(=O)OC(C)(C)C)CC3)CC2)cc1`, the Potency was active: 12.6 µM. For `Cc1ccc(Cc2nc3ccccc3nc2SCC(=O)N2CCCCC2C)cc1` (configuration not stated), the “activity change, negative = cell killing” value was inactive: -0.242%. For `Oc1ccc(NCc2ccc(OCc3ccccc3Cl)cc2)cc1`, the Potency was active: 10 µM. For `CCOc1ccc(C2C(C(=O)Nc3ccc(Cl)cc3)=C(C)Nc3nc(C(F)(F)F)nn32)cc1` (configuration not stated), the Potency was inconclusive: 12.6 µM [cytotoxic, single point]. With `Cc1ccc2ccc3cc(C(=O)N4CCN(c5ccccc5)CC4)nc3c2[nH]1` the Potency was inconclusive: 0.794 µM [cytotoxic, full curve, poor fit]. In the case of `CCCCN(C)CCNC(=O)c1ccc2c(c1)NC(=O)CN2`, the Potency is reported as inconclusive: 5.01 µM [cytotoxic, full curve, poor fit]. With `CCCCSCCCNC(=O)C1CCN(Cc2nc(-c3cccc(Br)c3)oc2C)CC1` the Potency was inconclusive: 20 µM [cytotoxic, single point]. For `O=C(Cn1ncc2c3ccccc3n(Cc3ccccc3F)c2c1=O)N1CCCCC1`, the “activity change, negative = cell killing” value was inactive: -28.5%. With `COc1ccc(CNC(=O)C2CCC(CNS(=O)(=O)c3cccs3)CC2)cc1` (configuration not stated) the Potency was inconclusive: 31.6 µM [cytotoxic, single point]. For `COc1ccc(Cc2ccc3[nH]c(=O)cc(C)c3c2)cc1S(=O)(=O)O`, the activity change, negative = cell killing was inactive: -4.21% [at 9.22 µM]. With `Cc1ccc(N2CCN(S(=O)(=O)c3nnc(NC(=O)c4ccc(C(C)C)cc4)s3)CC2)cc1` the “activity change, negative = cell killing” value was inactive: 4.62%. For `Cc1ccc(-c2nc(S(=O)(=O)c3ccc(C)cc3)c(N3CCCCCC3)o2)cc1`, the “activity change, negative = cell killing” value was inactive: 6.8%. With `CCOc1ccc(NC(=O)CN2C(C(=O)OC)=C(c3ccccc3)c3cc(Cl)ccc3S2(=O)=O)cc1` the Potency was inconclusive: 25.1 µM [cytotoxic, partial curve, poor fit]. In the case of `O=C(c1ccco1)N1CCN(C(c2ccccc2Cl)c2nnnn2Cc2cccs2)CC1` (configuration not stated), the Potency is reported as inconclusive: 12.6 µM [cytotoxic, single point]. With `CCOC(=O)c1ccc(N2C(=O)c3n[nH]c(-c4ccco4)c3C2c2ccc(F)cc2)cc1` (configuration not stated) the Potency was inconclusive: 12.6 µM [cytotoxic, single point]. With `Cc1cccc(CC(=O)NCCc2csc(-c3ccc(C(F)(F)F)cc3)n2)c1` the Potency was inconclusive: 20 µM [cytotoxic, partial curve]. In the case of `CCn1c(C)cc(/C=C2/SC(=S)NC2=O)c1C`, the Potency is reported as inconclusive: 35.5 µM [cytotoxic, single point]. With `S=c1[nH]nc(COc2ccc(Cl)cc2)o1` the Potency was inconclusive: 10 µM [cytotoxic, partial curve]. With `Cc1cc(C)cc(Oc2c(C(F)(F)F)oc3c(CN4CCCC(C)C4)c(O)ccc3c2=O)c1` (configuration not stated) the “activity change, negative = cell killing” value was inactive: 0.208%. With `Cc1ccc(-n2nc(-c3ccc(N)cc3)cc2N)cc1` the “activity change, negative = cell killing” value was inactive: -14.1%. With `COc1cccc(-c2cncnc2NCc2cccnc2)c1` the “activity change, negative = cell killing” value was inactive: -2.58%. In the case of `CC1CCN(C(=O)CSc2c3c(nc4cc(Cl)ccc24)CCCC3)CC1`, the Potency is reported as active: 15.8 µM. With `CC1(C)OC(C(O)(c2cccc3c2oc2ccccc23)c2cccc3c2oc2ccccc23)C(C(O)(c2cccc3c2oc2ccccc23)c2cccc3c2oc2ccccc23)O1` (configuration not stated) the activity change, negative = cell killing was inactive: 5.3% [at 9.22 µM]. In the case of `Cc1ccc(C)c(-n2nnc(-c3nc(-c4ccc(Cl)cc4)no3)c2N)c1`, the Potency is reported as inconclusive: 0.126 µM [cytotoxic, full curve, poor fit]. For `O=C(NCCCN1CCN(CCCNC(=O)c2ccc3c(c2)OCO3)CC1)c1ccc2c(c1)OCO2`, the “activity change, negative = cell killing” value was inactive: -4.85%. In the case of `COc1ccc(F)cc1S(=O)(=O)NCCc1csc(-c2ccc(Cl)cc2)n1`, the Potency is reported as inconclusive: 12.6 µM [cytotoxic, partial curve]. For `COc1cccc(C(=O)Nc2ccc(C)cc2)c1`, the Potency was active: 15.8 µM. With `Cc1ccc(NC(=O)c2cccc(NC(=O)N3CCSc4ncccc43)c2)cc1Cl` the Potency was inconclusive: 12.6 µM [cytotoxic, partial curve]. With `Cc1ccc(C(=O)NCC(c2cccs2)S(=O)(=O)c2cccs2)cc1C` (configuration not stated) the Potency was inconclusive: 0.005 µM [cytotoxic, full curve, poor fit]. For `Cc1cccc(NC(=O)Cn2nc(-c3ccc(Cl)cc3)c3ccccc3c2=O)c1`, the Potency was inconclusive: 15.8 µM [cytotoxic, single point]. For `Cc1ccc(-n2c(SCc3ccccc3F)nc3[nH]ncc3c2=O)cc1C`, the Potency was inconclusive: 31.6 µM [cytotoxic, single point]. With `O=C(Nc1cccc(-c2nc3ncccc3o2)c1)c1ccc(-c2cccc(Cl)c2Cl)o1` the Potency was active: 12.6 µM. In the case of `COc1ccc(C(=O)NCC(c2cccnc2)N2CCN(c3ccc(F)cc3)CC2)cc1` (configuration not stated), the Potency is reported as inconclusive: 25.1 µM [cytotoxic, single point]. For `CC(=O)Nc1nonc1NC(C)=O`, the “activity change, negative = cell killing” value was inactive: -4.81%. With `C/C(=N/NC(=O)c1ccc2nc[nH]c2c1)c1cccs1` the Potency was inconclusive: 17.8 µM [cytotoxic, partial curve]. For `CCOC(=O)N1CCc2c(sc3c2c(=O)n(Cc2ccccc2)c(=O)n3CC(=O)Nc2c(C)cccc2C)C1`, the Potency was inconclusive: 10 µM [cytotoxic, partial curve, poor fit]. In the case of `Cn1c(=O)c(=O)n(C)c2cc(S(=O)(=O)N3CCN(c4ccccc4F)CC3)ccc21`, the Potency is reported as inconclusive: 10 µM [cytotoxic, partial curve]. With `CN(c1cccc(NC(=O)COc2ccc(Cl)cc2Cl)c1)S(C)(=O)=O` the Potency was inconclusive: 6.31 µM [cytotoxic, partial curve]. With `O=C(Nc1cccc(C(F)(F)F)c1)c1noc2c1CCc1ccccc1-2` the “activity change, negative = cell killing” value was inactive: -15.9%. For `CN(C1CCCCC1)S(=O)(=O)c1ccc(C(=O)Nc2sc3c(c2C(N)=O)CC(C)(C)NC3(C)C)cc1`, the Potency was inconclusive: 31.6 µM [cytotoxic, partial curve]. With `OCc1cc([C@@H](O)CNCCCCCCOCCCCc2ccccc2)ccc1O` the Potency was active: 12.6 µM. For `Cc1cccc(N2CCN(c3nc4ccccc4c4nc(-c5ccccc5)nn34)CC2)c1C`, the “activity change, negative = cell killing” value was inactive: 16.4%. For `COc1ccc2oc(-c3ccc(C)c(NC(=O)c4ccc(N5CCCCC5)c([N+](=O)[O-])c4)c3)nc2c1`, the “activity change, negative = cell killing” value was inactive: 11.4%. For `CCOC(=O)c1c(Nc2ccccc2)nnc(-c2ccccc2)c1-c1ccccc1`, the Potency was inconclusive: 3.98 µM [cytotoxic, partial curve]. In the case of `CCC(Cc1ccccc1)NC(=O)c1csc2c1CCCCC2` (configuration not stated), the Potency is reported as inconclusive: 12.6 µM [cytotoxic, partial curve]. In the case of `COc1ccc2c(C)cc(SCC(=O)Nc3nsc(-c4ccc(C(C)(C)C)cc4)n3)nc2c1`, the Potency is reported as inconclusive: 3.98 µM [cytotoxic, partial curve]. In the case of `OC(COc1ccc2c(c1)CCC2)CN1CCN(c2ccccc2F)CC1` (configuration not stated), the Potency is reported as inconclusive: 31.6 µM [cytotoxic, single point]. For `CCCCCCCC[N+](CCCCCCCC)(CCCCCCCC)CCCCCCCC`, the Potency was active: 15.8 µM. For `Cc1cc(-c2nc3ncccc3o2)ccc1NC(=O)COc1ccc(C(C)(C)C)cc1`, the Potency was inconclusive: 10 µM [cytotoxic, partial curve]. For `CN1C(=O)CSc2ccc(NC(=O)Nc3ccccn3)cc21`, the Potency was inconclusive: 15.8 µM [cytotoxic, single point]. With `CN1CCN(c2ncc3c(n2)CCN(Cc2ccccc2Cl)C3)CC1` the Potency was inconclusive: 0.251 µM [cytotoxic, full curve, poor fit]. In the case of `CCc1ccc(-n2c(=O)c3cccnc3n2CC(=O)N(CC)c2cccc(C)c2)cc1`, the Potency is reported as inconclusive: 20 µM [cytotoxic, partial curve]. With `CCN(CC)C(=O)Oc1ccc2c(=O)c(-c3ccccc3)coc2c1` the Potency was inconclusive: 31.6 µM [cytotoxic, single point]. In the case of `Cn1c(=O)[nH]c(=O)c2c1nc(CN1CCN(c3cccc(Cl)c3)CC1)n2CCc1ccccc1`, the “activity change, negative = cell killing” value is reported as inactive: -28.8%. With `CCOC(=O)CSc1nc(-c2ccc(OC)cc2)ns1` the Potency was inconclusive: 12.6 µM [cytotoxic, partial curve]. In the case of `COc1ccc(CCNC(=O)CCCn2c(=O)c3ccccc3n(CC(=O)Nc3c(C)cc(C)cc3C)c2=O)cc1OC`, the Potency is reported as inconclusive: 31.6 µM [cytotoxic, single point]. With `CCCCNC(=O)c1ccc(-c2nc(CS(=O)(=O)c3ccc(C)cc3)c(C)o2)cc1` the Potency was inconclusive: 1.58 µM [cytotoxic, partial curve]. In the case of `COc1ccc2c(c1)c(N1CCCC1=O)c(C(=O)Nc1ccc(Cl)cc1C)n2C`, the Potency is reported as inconclusive: 0.0501 µM [cytotoxic, full curve, poor fit].

Source: PubChem BioAssay AID902 (National Center for Advancing Translational Sciences (NCATS), 2007)
% is scaled to controls: 0 for no effect and ±100 for the full control effect; potency is read from the fitted curve at half-maximal effect; tags tell the direction and shape of the fitted curve.
